The source gives no read counts; variants with many changes may rest on few reads.
B1: CPEB3 Ribozyme (parent)
chain: UAACAGGGGGCCACAGCAGAAGCGUUCACGUCGCAGCCCCUGUCAGAUUCUGGUGAAUCUGCGAAUUCUGCUGUAUAUCUC

Variants of: B1
Test: self-cleavage, relative activity (ratio to wild type); higher = more cleavage; in vitro, sequencing
Method in brief: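 After error-prone PCR and barcoding, CPEB3 ribozyme mutant libraries were transcribed with T7 RNA polymerase at 37°C for 5 hours, then given 15 min with DNase I before an EDTA stop, and they cleaved during both steps. Reverse transcription with template switching preceded Illumina sequencing. Relative activity divides a variant's cleaved/total read fraction by the unmutated ribozyme's. At least 5 reads were required per variant, and three batches were averaged.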

Row | Variant | self-cleavage
1 | UAACAGGGGGCCACAGCAGAAGCGUUCACGUCGCAGCCCCUGUCAGAUUCUGGUGAAUCUGCGCAUUCCCCUGUAUAUCUC | 0.24
2 | UAACAGGGGGCCACAGCAGAAGCGUUCACGUCGCAGCCCCUGUCAGAUUCUGGUGAAUCUGCGCAUUCCGCAGUAUACCUC | 0.22
3 | UAACAGGGGGCCACAGCAGAAGCGUUCACGUCGCAGCCCCUGUCAGAUUCUGGUGAAUCUGCGGGUACUGCUGUAUAUCUC | 0.15
4 | UAACAGGGGGCCACAGCAGAAGCGUUCACGUCGCAGCCCCUGUCAGAUUCUGGUGAAUCUGCGGGUUCCGCUGUAUAUCUC | 0.11
5 | UAACAGGGGGCCACAGCAGAAGCGUUCACGUCGCAGCCCCUGUCAGAUUCUGGUGAAUCUGCGGAUUCUGCUGUAUUUCCC | 0.85
6 | UAACAGGGGGCCACAGCAGAAGCGUUCACGUCGCAGCCCCUGUCAGAUUCUGGUGAAUCUGCGGAUUUUGCUGUAUACCCC | 0.37
7 | UAACAGGGGGCCACAGCAGAAGCGUUCACGUCGCAGCCCCUGUCAGAUUCUGGUGAAUCUGCGGAUUCUGGUGUACAUCUC | 0.28
8 | UAACAGGGGGCCACAGCAGAAGCGUUCACGUCGCAGCCCCUGUCAGAUUCUGGUGAAUCUGCGGAUUCUGCUGUAUAUACC | 1.07
9 | UAACAGGGGGCCACAGCAGAAGCGUUCACGUCGCAGCCCCUGUCAGAUUCUGGUGAAUCUGCGGAUUCUCCUGUACAUCUC | 0.2
10 | UAACAGGGGGCCACAGCAGAAGCGUUCACGUCGCAGCCCCUGUCAGAUUCUGGUGAAUCUGCGGAGUCUGCAGUAUAUCUC | 0.16
11 | UAACAGGGGGCCACAGCAGAAGCGUUCACGUCGCAGCCCCUGUCAGAUUCUGGUGAAUCUGCGGAUCCUGCUGUGUAUCUC | 0.21
12 | UAACAGGGGGCCACAGCAGAAGCGUUCACGUCGCAGCCCCUGUCAGAUUCUGGUGAAUCUGCGGAUCCUACUGUACAUCUC | 0.21
13 | UAACAGGGGGCCACAGCAGAAGCGUUCACGUCGCAGCCCCUGUCAGAUUCUGGUGAAUCUGCGGAUCCUGCCGUAUAUCUC | 0.33
14 | UAACAGGGGGCCACAGCAGAAGCGUUCACGUCGCAGCCCCUGUCAGAUUCUGGUGAAUCUGCGGAUGCUGCCGUGUAUCUC | 0.19
15 | UAACAGGGGGCCACAGCAGAAGCGUUCACGUCGCAGCCCCUGUCAGAUUCUGGUGAAUCUGCGGAUUCAGCCGUAUAUCUC | 0.38
16 | UAACAGGGGGCCACAGCAGAAGCGUUCACGUCGCAGCCCCUGUCAGAUUCUGGUGAAUCUGCGGAUUCAGCUGCAUAUCUC | 0.31
17 | UAACAGGGGGCCACAGCAGAAGCGUUCACGUCGCAGCCCCUGUCAGAUUCUGGUGAAUCUGCGGAUUCCGCUGUAUGUCUC | 0.41
18 | UAACAGGGGGCCACAGCAGAAGCGUUCACGUCGCAGCCCCUGUCAGAUUCUGGUGAAUCUGCGGAUUCCGCUGAAUAUCUC | 0.3
19 | UAACAGGGGGCCACAGCAGAAGCGUUCACGUCGCAGCCCCUGUCAGAUUCUGGUGAAUCUGCGGAUUCUGCAGUAAAUCUC | 0.53
20 | UAACAGGGGGCCACAGCAGAAGCGUUCACGUCGCAGCCCCUGUCAGAUUCUGGUGAAUCUGCGGAUUCUGCCGCAUAUCUC | 1.02
21 | UAACAGGGGGCCACAGCAGAAGCGUUCACGUCGCAGCCCCUGUCAGAUUCUGGUGAAUCUGCGGAUUCUGCUGAAUAGCUC | 1.16
22 | UAACAGGGGGCCACAGCAGAAGCGUUCACGUCGCAGCCCCUGUCAGAUUCUGGUGAAUCUGCGGAUUCUGCUGUAAGUCUC | 0.73
23 | UAACAGGGGGCCACAGCAGAAGCGUUCACGUCGCAGCCCCUGUCAGAUUCUGGUGAAUCUGCGGAUUCUGCUGUAAAUCCC | 0.98

Row | Variant | self-cleavage
24 | UAACAGGGGGCCACAGCAGAAGCGUUCACGUCGCAGCCCCUGUCAGAUUCUGGUGAAUCUGCGGAUUCUGCUGUACAUUUC | 1.15
25 | UAACAGGGGGCCACAGCAGAAGCGUUCACGUCGCAGCCCCUGUCAGAUUCUGGUGAAUCUGCGGAUUCUGCUGUAUACAUC | 0.76
26 | UAACAGGGGGCCACAGCAGAAGCGUUCACGUCGCAGCCCCUGUCAGAUUCUGGUGAAUCUGCGGAUUCUGCUGUAUACGCC | 0.97
27 | UAACAGGGGGCCACAGCAGAAGCGUUCACGUCGCAGCCCCUGUCAGAUUCUGGUGAAUCUGCGUGCUCUGCUGUAUAUCUC | 0.18
28 | UAACAGGGGGCCACAGCAGAAGCGUUCACGUCGCAGCCCCUGUCAGAUUCUGGUGAAUCUGCGUGUCCUGCUGUAUAUCUC | 0.36
29 | UAACAGGGGGCCACAGCAGAAGCGUUCACGUCGCAGCCCCUGUCAGAUUCUGGUGAAUCUGCGUGUUCUGCUGUAUAUCCC | 0.19
30 | UAACAGGGGGCCACAGCAGAAGCGUUCACGUCGCAGCCCCUGUCAGAUUCUGGUGAAUCUGCGUUUUCUGCUGUACAUCUC | 0.13
31 | UAACAGGGGGCCACAGCAGAAGCGUUCACGUCGCAGCCCCUGUCAGAUUCUGGUGAAUCUGCGUAUUCUACUGUAUAUCGC | 0.29
32 | UAACAGGGGGCCACAGCAGAAGCGUUCACGUCGCAGCCCCUGUCAGAUUCUGGUGAAUCUGCGUAUUCAGCCGUAUACCUC | 0.26
33 | UAACAGGGGGCCACAGCAGAAGCGUUCACGUCGCAGCCCCUGUCAGAUUCUGGUGAAUCUGCGUAUUCUGCUGUAUAUCCA | 0.27
34 | UAACAGGGGGCCACAGCAGAAGCGUUCACGUCGCAGCCCCUGUCAGAUUCUGGUGAAUCUGCGACUUGUGCCGUAUAUCUC | 0.14
35 | UAACAGGGGGCCACAGCAGAAGCGUUCACGUCGCAGCCCCUGUCAGAUUCUGGUGAAUCUGCGAGUUCUGCUGUAUGUCAC | 0.44
36 | UAACAGGGGGCCACAGCAGAAGCGUUCACGUCGCAGCCCCUGUCAGAUUCUGGUGAAUCUGCGAGAACUGCUGUAUAUCUC | 0.21
37 | UAACAGGGGGCCACAGCAGAAGCGUUCACGUCGCAGCCCCUGUCAGAUUCUGGUGAAUCUGCGAGUCCUGCUGUAUCUCUC | 0.19
38 | UAACAGGGGGCCACAGCAGAAGCGUUCACGUCGCAGCCCCUGUCAGAUUCUGGUGAAUCUGCGAGUCCUGCUGUAUAUCUU | 0.16
39 | UAACAGGGGGCCACAGCAGAAGCGUUCACGUCGCAGCCCCUGUCAGAUUCUGGUGAAUCUGCGAGUCCUGCAGUGUAUCUC | 0.2
40 | UAACAGGGGGCCACAGCAGAAGCGUUCACGUCGCAGCCCCUGUCAGAUUCUGGUGAAUCUGCGAGUUCAGCGGUAUAUCUC | 0.2
41 | UAACAGGGGGCCACAGCAGAAGCGUUCACGUCGCAGCCCCUGUCAGAUUCUGGUGAAUCUGCGAGUUCCGCAGUAUAUCUC | 0.54
42 | UAACAGGGGGCCACAGCAGAAGCGUUCACGUCGCAGCCCCUGUCAGAUUCUGGUGAAUCUGCGAGUUCUGCCGCAUAUCUC | 0.75
43 | UAACAGGGGGCCACAGCAGAAGCGUUCACGUCGCAGCCCCUGUCAGAUUCUGGUGAAUCUGCGAUCUCUGCGGUAUAUCUC | 0.45
44 | UAACAGGGGGCCACAGCAGAAGCGUUCACGUCGCAGCCCCUGUCAGAUUCUGGUGAAUCUGCGAUCUCUGCUGUAUAUCCC | 0.26
45 | UAACAGGGGGCCACAGCAGAAGCGUUCACGUCGCAGCCCCUGUCAGAUUCUGGUGAAUCUGCGAUUACAGCAGUAUAUCUC | 0.23
46 | UAACAGGGGGCCACAGCAGAAGCGUUCACGUCGCAGCCCCUGUCAGAUUCUGGUGAAUCUGCGAUUCCUGCCGUAUAUCUC | 0.34

Row | Variant | self-cleavage
47 | UAACAGGGGGCCACAGCAGAAGCGUUCACGUCGCAGCCCCUGUCAGAUUCUGGUGAAUCUGCGAUUCCUGCUGUAUACCUC | 0.4
48 | UAACAGGGGGCCACAGCAGAAGCGUUCACGUCGCAGCCCCUGUCAGAUUCUGGUGAAUCUGCGAUUUCUGCGGUACAUCUC | 0.54
49 | UAACAGGGGGCCACAGCAGAAGCGUUCACGUCGCAGCCCCUGUCAGAUUCUGGUGAAUCUGCGAAACCUGGAGUAUAUCUC | 0.32
50 | UAACAGGGGGCCACAGCAGAAGCGUUCACGUCGCAGCCCCUGUCAGAUUCUGGUGAAUCUGCGAAAUCUGCUGCAUACCUC | 0.85
51 | UAACAGGGGGCCACAGCAGAAGCGUUCACGUCGCAGCCCCUGUCAGAUUCUGGUGAAUCUGCGAACUCUGCUGUUUAUAUC | 0.64
52 | UAACAGGGGGCCACAGCAGAAGCGUUCACGUCGCAGCCCCUGUCAGAUUCUGGUGAAUCUGCGAACUGAGCUGAAUAUCUC | 0.11
53 | UAACAGGGGGCCACAGCAGAAGCGUUCACGUCGCAGCCCCUGUCAGAUUCUGGUGAAUCUGCGAACUCUGCUAUAUAUCAC | 1.13
54 | UAACAGGGGGCCACAGCAGAAGCGUUCACGUCGCAGCCCCUGUCAGAUUCUGGUGAAUCUGCGAACCCUGAUGUCUACCUC | 0.33
55 | UAACAGGGGGCCACAGCAGAAGCGUUCACGUCGCAGCCCCUGUCAGAUUCUGGUGAAUCUGCGAACUCCGCUGUAUACCUC | 0.47
56 | UAACAGGGGGCCACAGCAGAAGCGUUCACGUCGCAGCCCCUGUCAGAUUCUGGUGAAUCUGCGAACUCUGCCGUAUAUCAC | 0.3
57 | UAACAGGGGGCCACAGCAGAAGCGUUCACGUCGCAGCCCCUGUCAGAUUCUGGUGAAUCUGCGAACUCUGCUGUAUACCUU | 0.32
58 | UAACAGGGGGCCACAGCAGAAGCGUUCACGUCGCAGCCCCUGUCAGAUUCUGGUGAAUCUGCGAAUACAGCUGUGUAUCUC | 0.19
59 | UAACAGGGGGCCACAGCAGAAGCGUUCACGUCGCAGCCCCUGUCAGAUUCUGGUGAAUCUGCGAAUACCGCUGUAUAUAUC | 0.21
60 | UAACAGGGGGCCACAGCAGAAGCGUUCACGUCGCAGCCCCUGUCAGAUUCUGGUGAAUCUGCGAAUACUGCCGUAUAUCCC | 0.35
61 | UAACAGGGGGCCACAGCAGAAGCGUUCACGUCGCAGCCCCUGUCAGAUUCUGGUGAAUCUGCGAAUACUGCUGCAAAUCUC | 1.1
62 | UAACAGGGGGCCACAGCAGAAGCGUUCACGUCGCAGCCCCUGUCAGAUUCUGGUGAAUCUGCGAAUCCAACUGUAUAUCUC | 0.25
63 | UAACAGGGGGCCACAGCAGAAGCGUUCACGUCGCAGCCCCUGUCAGAUUCUGGUGAAUCUGCGAAUCCCGCUGUAUACCUC | 0.39
64 | UAACAGGGGGCCACAGCAGAAGCGUUCACGUCGCAGCCCCUGUCAGAUUCUGGUGAAUCUGCGAAUCCUGCCGUAUACCUC | 0.27
65 | UAACAGGGGGCCACAGCAGAAGCGUUCACGUCGCAGCCCCUGUCAGAUUCUGGUGAAUCUGCGAAUCCUGCUGUAAAUCCC | 0.32
66 | UAACAGGGGGCCACAGCAGAAGCGUUCACGUCGCAGCCCCUGUCAGAUUCUGGUGAAUCUGCGAAUGCUGCAGUGUAUCUC | 0.41
67 | UAACAGGGGGCCACAGCAGAAGCGUUCACGUCGCAGCCCCUGUCAGAUUCUGGUGAAUCUGCGAAUUGUGCUGUAUGUCCC | 0.46
68 | UAACAGGGGGCCACAGCAGAAGCGUUCACGUCGCAGCCCCUGUCAGAUUCUGGUGAAUCUGCGAAUUUUGCGGUAUUUCUC | 0.51

— the RNAGym collection of RNA variant scans (doi:10.1093/nar/gkz1192)
